This is one part of the list. Single values of this set are uncertain. Values with irradiation are relative to irradiated vehicle.
Columns and labels:
A549-Dual [1] = assay: NF-kB reporter (SEAP) activity, viability-corrected, relative to vehicle (fold change vs vehicle); higher = more activation of STING-IRF / NF-kB immune response reporter; settings: 10 µM
A549-Dual [2] = assay: ISRE reporter (Lucia luciferase) activity, viability-corrected, relative to vehicle (fold change vs vehicle); higher = more activation of STING-IRF / NF-kB immune response reporter; settings: 10 µM
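For NF-kB reporter (SEAP) activity, viability-corrected, relative to vehicle in this document: viability correction based on the alamar blue assay, with concentrations leaving 10% survival or less dropped.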

SMILES | NF-kB reporter (A549-Dual [1]; irradiation: 8 Gy/4 fr) | NF-kB reporter (A549-Dual [1]; irradiation: none) | ISRE reporter (A549-Dual [2]; irradiation: 8 Gy/4 fr) | ISRE reporter (A549-Dual [2]; irradiation: none)
NC(=O)N1c2ccccc2CC(=O)c2ccccc21 [Oxcarbazepine] | 0.784 | 0.764 | 0.67 | 0.63
COc1ccc(C2CC(=O)c3c(O)cc(OC4OC(COC5OC(C)C(O)C(O)C5O)C(O)C(O)C4O)cc3O2)cc1O (stereo not given) [Hesperidin] | 0.79 | 0.856 | 0.727 | 0.643
NS(=O)(=O)c1cc2c(cc1Cl)N=C(CSCc1ccccc1)NS2(=O)=O [Benzthiazide] | 1.22 | 0.913 | 1.29 | 0.938
CNCCC(Oc1ccc(C(F)(F)F)cc1)c1ccccc1.Cl (stereo not given) [Fluoxetine HCl] | 0.566 | 0.856 | 0.747 | 0.97
COC(=O)CCc1ccc(OCC(O)CNC(C)C)cc1 (stereo not given) [Esmolol] | 0.883 | 1.03 | 0.736 | 0.669
Nc1nc([O-])c2ncn(COC(CO)CO)c2n1.[Na+] [Ganciclovir sodium] | 1.12 | 1.2 | 1.07 | 1.02
Cl.O=C1C2CCCCC2C(=O)N1CCCCN1CCN(c2nsc3ccccc23)CC1 (stereo not given) [Perospirone hydrochloride] | 0.589 | 0.795 | 0.469 | 0.941
CCC1OC(=O)C(C)C(OC2CC(C)(OC)C(O)C(C)O2)C(C)C(OC2OC(C)CC(N(C)C)C2O)C(C)(O)CC(C)C2NC(COCCOC)OC(C2C)C1(C)O (stereo not given) [Dirithromycin] | 0.868 | 0.925 | 0.994 | 0.87
O=c1ccc2cc(O)c(O)cc2o1 [Esculetin] | 0.735 | 0.814 | 0.684 | 0.439
CC(C)c1cc2c(cc1S(=O)(=O)[O-])C1(C)CCCC(C)(C(=O)O)C1CC2.[Na+] (stereo not given) [Ecabet sodium] | 1.71 | 0.855 | 1.73 | 0.766
O=C([O-])/C=C/c1ccc(Cn2ccnc2)cc1.[Na+] [Ozagrel sodium] | 0.729 | 0.654 | 0.713 | 0.58
CCCCCCCCCCCCCCCC(=O)OC [Methyl palmitate] | 0.69 | 0.823 | 0.64 | 0.661
CC(C)NCC(O)c1ccc(O)c(O)c1.CC(C)NCC(O)c1ccc(O)c(O)c1.O.O.O=S(=O)(O)O (stereo not given) [Isoproterenol sulfate dihydrate] | 1.15 | 1.94 | 0.977 | 1.09
CC(CCC(=O)O)C1CCC2C3CCC4CC(O)CCC4(C)C3CC(O)C12C (stereo not given) [Deoxycholic acid] | 1.06 | 0.622 | 1.04 | 0.709
C=CC1CN2CCC1CC2C(O)c1ccnc2ccc(OC)cc12.C=CC1CN2CCC1CC2C(O)c1ccnc2ccc(OC)cc12.O.O.O=S(=O)(O)O (stereo not given) [Quinidine sulfate] | 0.757 | 1.07 | 0.966 | 0.784
COc1cc(O)cc(C2CC(=O)c3c(O)cc(OC4OC(CO)C(O)C(O)C4OC4OC(C)C(O)C(O)C4O)cc3O2)c1 (stereo not given) [Neohesperidin] | 0.552 | 0.686 | 0.225 | 0.282
O=C(/C=C/c1ccc(O)c(O)c1)OC1CC(O)(C(=O)O)CC(O)C1O (stereo not given) [Chlorogenic Acid] | 0.925 | 0.769 | 1.04 | 0.941
CC(C)(O)C1CCC(C)(C2C(O)CC3(C)C4CC(OC5OC(CO)C(O)C(O)C5O)C5C(C)(C)C(OC6OCC(O)C(O)C6O)CCC56CC46CCC23C)O1 (stereo not given) [Astragaloside IV] | 0.781 | 0.668 | 0.674 | 0.497
N=C(N)NCCN1CCCCCCC1.N=C(N)NCCN1CCCCCCC1.O=S(=O)(O)O [Guanethidine Sulfate] | 0.743 | 0.806 | 0.769 | 0.853
N=C(N)NCCN1CCCCCCC1.O=S(=O)(O)O [Guanethidine Monosulfate] | 0.766 | 0.807 | 0.748 | 0.73
O=[N+]([O-])c1cncn1CCN1CCOCC1 [Nimorazole] | 0.989 | 1.06 | 0.985 | 1.07
CCCN1CCCCC1C(=O)Nc1c(C)cccc1C.CS(=O)(=O)O (stereo not given) [Ropivacaine Mesilate] | 0.431 | 1.05 | 0.499 | 0.671
O=c1cc(-c2ccc(O)cc2)oc2cc(O)cc(O)c12 [Apigenin] | 0.653 | 0.563 | 0.66 | 0.945
CCCc1nc(C(C)(C)O)c(C(=O)OCc2oc(=O)oc2C)n1Cc1ccc(-c2ccccc2-c2nn[nH]n2)cc1 [Olmesartan Medoxomil] | 0.655 | 1.01 | 0.688 | 0.9
COc1ccc(C(=O)CC(=O)c2ccc(C(C)(C)C)cc2)cc1 [Avobenzone] | 0.667 | 0.504 | 0.701 | 0.54

From the supplement of paper PMC9174493
